# In US11000038B2, “Pyridone compounds and agricultural and horticultural fungicides containing the same as active ingredients” (priority 2017, dated 2021):
# Tests used:
# [1] = tested on: cabbage Alternaria sooty spot fungi (Alternaia brassicicola); assay: Test Example C: cabbage Alternaria sooty spot, spray treatment of cabbage plants; type: in vivo; conditions: cabbage Alternaria sooty spot, spray treatment of cabbage plants
# Source text: [Test Example C] Cabbage Alternaria Sooty Spot
# Test plants (cabbage variety: Shikidori) were cultivated until the cotyledons extended after the sowing of seeds.
# <Control Value> Control value=100{1−(n/3)}
# [2] = tested on: wheat brown rust fungi (Puccinia recondita); assay: Test Example E: wheat brown rust, spray treatment of wheat plants; type: in vivo; conditions: wheat brown rust, spray treatment of wheat plants
# [3] = tested on: gray mold fungi (Botrytis cinerea); assay: Test Example B: tomato gray mold, spray treatment of tomato plants; conditions: tomato gray mold, spray treatment of tomato plants
# [4] = tested on: grape downy mildew fungus (Plasmopara viticola); assay: Test Example G: grape downy mildew, spray treatment of grape plants; conditions: grape downy mildew, 250 ppm spray (2.5 ml/pot), 7 to 10 days after inoculation
# [5] = tested on: barley powdery mildew fungi (Blumeria graminis f. sp. hordei); assay: Test Example D: barley powdery mildew, spray treatment of barley plants; conditions: barley powdery mildew, spray treatment of barley plants
compound,measurement,setting,value
COCn1cc(C)c(=O)c(C)c1-c1c(F)cc(F)cc1F [Compound 260],Test C control value,[1],L (L shows the control value of 50% or less)
same,Test E control value,[2],L (L shows the control value of 50% or less)
same,Test B control value,[3],H (H shows the control value of more than 50%)
same,Test G control value,[4],L (L shows the control value of 50% or less)
same,Test D control value,[5],L (L shows the control value of 50% or less)
Cc1ccccc1-n1cc(I)c(=O)c(C)c1-c1c(F)cc(F)cc1F [Compound 261],Test C control value,[1],H (H shows the control value of more than 50%)
same,Test E control value,[2],H (H shows the control value of more than 50%)
same,Test B control value,[3],H (H shows the control value of more than 50%)
same,Test G control value,[4],H (H shows the control value of more than 50%)
same,Test D control value,[5],H (H shows the control value of more than 50%)
Cc1ccccc1-n1cc(C)c(=O)c(C)c1-c1ccc(S(C)(=O)=O)cc1 [Compound 263],Test C control value,[1],L (L shows the control value of 50% or less)
same,Test E control value,[2],L (L shows the control value of 50% or less)
same,Test B control value,[3],H (H shows the control value of more than 50%)
same,Test G control value,[4],L (L shows the control value of 50% or less)
same,Test D control value,[5],L (L shows the control value of 50% or less)
C=CCn1cc(C)c(=O)c(C)c1-c1c(F)cc(F)cc1F [Compound 268],Test C control value,[1],L (L shows the control value of 50% or less)
same,Test E control value,[2],H (H shows the control value of more than 50%)
same,Test B control value,[3],H (H shows the control value of more than 50%)
same,Test G control value,[4],L (L shows the control value of 50% or less)
same,Test D control value,[5],H (H shows the control value of more than 50%)
COc1ccc(-n2cc(Cl)c(=O)c(Cl)c2-c2c(F)cc(F)cc2F)c(C)c1 [Compound 270],Test C control value,[1],H (H shows the control value of more than 50%)
same,Test E control value,[2],H (H shows the control value of more than 50%)
same,Test B control value,[3],H (H shows the control value of more than 50%)
same,Test G control value,[4],H (H shows the control value of more than 50%)
same,Test D control value,[5],H (H shows the control value of more than 50%)
Cc1ccccc1-n1cc(C)c(=O)c(C)c1-c1ccncc1 [Compound 271],Test C control value,[1],L (L shows the control value of 50% or less)
same,Test E control value,[2],L (L shows the control value of 50% or less)
same,Test B control value,[3],L (L shows the control value of 50% or less)
same,Test G control value,[4],L (L shows the control value of 50% or less)
same,Test D control value,[5],L (L shows the control value of 50% or less)
Cc1cc(F)ccc1-n1cc(Br)c(=O)c(Cl)c1-c1c(F)cc(F)cc1F [Compound 274],Test C control value,[1],H (H shows the control value of more than 50%)
same,Test E control value,[2],H (H shows the control value of more than 50%)
same,Test B control value,[3],H (H shows the control value of more than 50%)
same,Test G control value,[4],L (L shows the control value of 50% or less)
same,Test D control value,[5],H (H shows the control value of more than 50%)
Cc1cc(F)ccc1-n1cc(Cl)c(=O)c(Br)c1-c1c(F)cc(F)cc1F [Compound 275],Test C control value,[1],H (H shows the control value of more than 50%)
same,Test E control value,[2],H (H shows the control value of more than 50%)
same,Test B control value,[3],H (H shows the control value of more than 50%)
same,Test G control value,[4],H (H shows the control value of more than 50%)
same,Test D control value,[5],H (H shows the control value of more than 50%)
Cc1cc(F)ccc1-n1cc(Cl)c(=O)c(Cl)c1-c1c(F)cc(F)cc1F [Compound 276],Test C control value,[1],H (H shows the control value of more than 50%)
same,Test E control value,[2],H (H shows the control value of more than 50%)
same,Test B control value,[3],H (H shows the control value of more than 50%)
same,Test G control value,[4],L (L shows the control value of 50% or less)
same,Test D control value,[5],L (L shows the control value of 50% or less)
CC(=O)c1cn(-c2ccccc2C)c(-c2c(F)cc(F)cc2F)c(C)c1=O [Compound 277],Test C control value,[1],H (H shows the control value of more than 50%)
same,Test E control value,[2],H (H shows the control value of more than 50%)
same,Test B control value,[3],H (H shows the control value of more than 50%)
same,Test G control value,[4],L (L shows the control value of 50% or less)
same,Test D control value,[5],L (L shows the control value of 50% or less)
COc1cc(F)c(-c2c(Cl)c(=O)c(Br)cn2-c2cc(OC)ccc2C)c(F)c1 [Compound 279],Test C control value,[1],H (H shows the control value of more than 50%)
same,Test E control value,[2],H (H shows the control value of more than 50%)
same,Test B control value,[3],H (H shows the control value of more than 50%)
same,Test G control value,[4],L (L shows the control value of 50% or less)
same,Test D control value,[5],H (H shows the control value of more than 50%)
"Cc1ccc(O)cc1-n1cc(Br)c(=O)c(Cl)c1-c1c(F)cc(F)cc1F [Compound 280, 5-bromo-3-chloro-1-(5-hydroxy-2-methylphenyl)-2-(2,4,6-trifluorophenyl)pyridin-4(1H)-one]",Test C control value,[1],H (H shows the control value of more than 50%)
same,Test E control value,[2],H (H shows the control value of more than 50%)
same,Test B control value,[3],H (H shows the control value of more than 50%)
same,Test G control value,[4],L (L shows the control value of 50% or less)
same,Test D control value,[5],L (L shows the control value of 50% or less)
CCc1cn(CC(C)C)c(-c2c(F)cc(F)cc2F)c(CC)c1=O [Compound 281],Test C control value,[1],H (H shows the control value of more than 50%)
same,Test E control value,[2],H (H shows the control value of more than 50%)
same,Test B control value,[3],H (H shows the control value of more than 50%)
same,Test G control value,[4],L (L shows the control value of 50% or less)
same,Test D control value,[5],H (H shows the control value of more than 50%)
COCCOc1ccc(C)c(-n2cc(Br)c(=O)c(Cl)c2-c2c(F)cc(F)cc2F)c1 [Compound 282],Test C control value,[1],L (L shows the control value of 50% or less)
same,Test E control value,[2],H (H shows the control value of more than 50%)
same,Test B control value,[3],H (H shows the control value of more than 50%)
same,Test G control value,[4],H (H shows the control value of more than 50%)
same,Test D control value,[5],H (H shows the control value of more than 50%)
COCCOc1ccc(C)c(-n2cc(Br)c(=O)c(Cl)c2-c2c(F)cc(OC)cc2F)c1 [Compound 283],Test C control value,[1],H (H shows the control value of more than 50%)
same,Test E control value,[2],H (H shows the control value of more than 50%)
same,Test B control value,[3],H (H shows the control value of more than 50%)
same,Test G control value,[4],L (L shows the control value of 50% or less)
same,Test D control value,[5],L (L shows the control value of 50% or less)
Cc1ccc(OCC#N)cc1-n1cc(Br)c(=O)c(Cl)c1-c1c(F)cc(F)cc1F [Compound 284],Test C control value,[1],H (H shows the control value of more than 50%)
same,Test E control value,[2],H (H shows the control value of more than 50%)
same,Test B control value,[3],H (H shows the control value of more than 50%)
same,Test G control value,[4],H (H shows the control value of more than 50%)
same,Test D control value,[5],H (H shows the control value of more than 50%)
